# Measurements: PubChem BioAssay AID316 (DTP/NCI, 2004)
# Toxic doses and inconclusive results are not listed. For part of its entries the source gives two or more results. They are shown here; other results are not. The source may hold further records. Results that share an entry differ, and nothing given here explains why; they may come from other doses, times, organisms or constructs than stated.
# Tested on: P1534 leukemia ip, CD2F1 mice, survival T/C
# Assay: NCI In Vivo Anticancer Drug Screen. Data for tumor model P1534 Leukemia (intraperitoneal) in CD2F1 (CDF1) mice
# Conditions: endpoint: mean survival time, schedule: Q01DX001 (ip), vehicle: saline, higher = longer survival
# Experimental: The antitumor activity of compounds was measured in mice bearing transplantable tumors. Survival or tumor size were measured and the results are expressed as the measurement made in the treated group (T) divided by the measurement made in the vehicle treated control group (C). The tumor model used in this assay is P1534 Leukemia (intraperitoneal) in CD2F1 (CDF1) mice
smiles,measurement,setting,value
CC[C@]1(O)C[C@H]2CN(CCc3c([nH]c4ccccc34)[C@@](C(=O)OC)(c3cc4c(cc3OC)N(C=O)[C@H]3[C@@](O)(C(=O)OC)[C@H](OC(C)=O)[C@]5(CC)C=CCN6CC[C@]43[C@@H]65)C2)C1,T/C,dose: 2.5 mg/kg/injection,"124 % of control, 154 % of control, 184 % of control"
same,T/C,dose: 3.0 mg/kg/injection,111 % of control and 164 % of control
